Reference: article PMC4336329 (PLoS ONE, 2015)
Hit rate of the full screen: of about 310,000 compounds, about 14,000 (4.5%) showed an effect of 50% or more. The effect is printed as a negative number. This is one part of the list.

What follows are compounds tested against human ether-à-go-go-related gene (hERG) potassium channel (human, UniProt Q12809) (assay: primary screen, population patch clamp on CHO cells stably expressing hERG).
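Further: peak tail current of the secondary pulse compared with the same well before compound.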

human ether-à-go-go-related gene (hERG) potassium channel, sequence (Q12809 whole entry, looked up): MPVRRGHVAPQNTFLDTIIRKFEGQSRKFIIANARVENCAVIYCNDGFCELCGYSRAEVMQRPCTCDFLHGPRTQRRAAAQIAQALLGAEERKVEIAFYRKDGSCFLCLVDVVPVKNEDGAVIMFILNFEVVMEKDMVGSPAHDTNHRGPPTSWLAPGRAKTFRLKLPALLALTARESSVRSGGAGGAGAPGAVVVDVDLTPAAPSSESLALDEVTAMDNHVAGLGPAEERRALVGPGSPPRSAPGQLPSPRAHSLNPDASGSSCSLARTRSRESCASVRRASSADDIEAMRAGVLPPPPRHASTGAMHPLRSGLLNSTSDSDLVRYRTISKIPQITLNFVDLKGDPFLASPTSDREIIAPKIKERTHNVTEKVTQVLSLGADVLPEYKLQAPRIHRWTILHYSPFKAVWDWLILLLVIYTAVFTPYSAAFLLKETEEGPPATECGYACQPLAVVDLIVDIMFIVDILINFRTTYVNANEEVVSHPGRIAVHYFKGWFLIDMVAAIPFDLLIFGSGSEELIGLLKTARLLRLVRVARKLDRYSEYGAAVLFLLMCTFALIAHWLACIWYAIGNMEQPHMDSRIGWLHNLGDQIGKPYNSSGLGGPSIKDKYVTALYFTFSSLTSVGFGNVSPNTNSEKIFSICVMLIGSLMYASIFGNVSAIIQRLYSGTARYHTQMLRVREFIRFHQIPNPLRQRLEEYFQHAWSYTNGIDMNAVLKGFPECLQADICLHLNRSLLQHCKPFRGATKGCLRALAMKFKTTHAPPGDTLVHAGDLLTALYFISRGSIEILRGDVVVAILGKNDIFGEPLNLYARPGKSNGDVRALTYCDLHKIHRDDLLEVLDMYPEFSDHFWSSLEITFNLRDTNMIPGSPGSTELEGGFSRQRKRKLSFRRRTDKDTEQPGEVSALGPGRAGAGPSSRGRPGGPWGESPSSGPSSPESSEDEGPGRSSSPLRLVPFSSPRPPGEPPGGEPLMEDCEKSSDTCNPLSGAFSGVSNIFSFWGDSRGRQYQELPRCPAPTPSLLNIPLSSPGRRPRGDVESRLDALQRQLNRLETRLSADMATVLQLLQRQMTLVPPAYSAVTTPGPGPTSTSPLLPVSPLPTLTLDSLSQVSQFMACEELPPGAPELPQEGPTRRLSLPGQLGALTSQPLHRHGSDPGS

| SMILES | hERG current change (%, negative = inhibition) at 10uM [%] |
| --- | --- |
| COc1ccc2oc(C(=O)Nc3ccc(S(=O)(=O)N(C)C4CCN(C)CC4)cc3)c(C)c2c1 | 7.08 |
| CC1(C)Cc2c(sc3[nH]c(=S)n(Cc4ccco4)c(=O)c23)CO1 | 5.58 |
| COc1ccc(-c2noc(CN(C)C(=O)c3ccoc3C)n2)cc1 | 14.4 |
| O=[N+]([O-])/C=C1\NCCN1Cc1ccc(Cl)nc1 [22413311] | 5.78 |
| Cc1cc(C)cc(N(CC(=O)NC2CC3CCC2C3)S(C)(=O)=O)c1 (centres unmarked) | -17.9 |
| OCCSc1nc(-c2ccccc2)nc2c1CCC2 | -12 |
| Cc1cc(C)n(C(=O)C(C(=O)c2ccccc2)C(C)C)n1 (centres unmarked) | -9.85 |
| COc1ccc2nc(N3C(=O)CC(Cc4ccc(C)cc4)C3=O)sc2c1 (centres unmarked) | -3.78 |
| CC1CCCN(C(=O)CCCNC(=O)c2ccc(Cl)cc2)C1 (centres unmarked) | 4.52 |
| CCC(C(=O)OCC(=O)Nc1ccc2[nH]c(=O)[nH]c2c1)c1ccccc1 (centres unmarked) | -2.69 |
| CN(Cc1ccccc1)c1nc2nonc2nc1N1CCCC(CN2CCCC2=O)C1 (centres unmarked) | -27.9 |
| CCCCN1C2CCCC1CC(NC(=O)c1ccccc1Cl)C2 (centres unmarked) | -16.5 |
| O=C(COc1ccccc1C(=O)O)Nc1nc2ccc([N+](=O)[O-])cc2s1 | 0.774 |
| COc1ccc(OC)c(C(=O)/C=C/c2cccnc2)c1 | 17.2 |
| CC1CCCN(C(=O)c2cccc(S(=O)(=O)N3CCCc4ccccc43)c2)C1 (centres unmarked) | -23.7 |
| Cc1ccsc1C(=O)OCC(=O)NC1CCCCC1C (centres unmarked) | 12.6 |
| Cc1ccc(-c2nnc(N3CCN(C(=O)CN4C(=O)c5ccccc5C4=O)CC3)c3ccccc23)cc1 | 6.37 |
| COc1ccc2[nH]cc(CCN3C(=O)CCC3=O)c2c1 | 10.7 |
| CCOc1cc(C(=O)NC)cc(OCC)c1OCC | 12.7 |
| Cc1ccc(C)c(N(CC(=O)NC2CCCC2)S(=O)(=O)c2ccccc2)c1 | 19.9 |
| COc1cc2c(cc1C=O)OC(C)C2 (centres unmarked) | 43.1 |
| CC(OC(=O)Cc1n[nH]c(=O)c2ccccc12)C(=O)Nc1ccccc1[N+](=O)[O-] (centres unmarked) | -5.73 |

| SMILES | hERG current change (%, negative = inhibition) at 10uM [%] |
| --- | --- |
| C1CCC(n2nnnc2CN2CCN(C3CCCC3)CC2)CC1 | -10.1 |
| COC(=O)/C(=C/c1ccco1)NC(=O)c1ccc(Br)o1 | 9.82 |
| Cc1ccc(-c2c[n+](CC(=O)OCc3ccccc3)c3n2CCC3)cc1.[Br-] | -56.3 |
| NC1=NC(=O)/C(=C\C=C\c2ccccc2)S1 | 16.4 |
| CC(c1ccccc1)N1CCC(CNC(=S)Nc2cccc(Cl)c2)C1 (centres unmarked) | -29.2 |
| O=C(O)c1cc(-c2cccc(Cl)c2)nc2nc(N3CCCCC3)sc12 | 8.18 |
| CCOC(=O)c1cnc2c(Cl)cccc2c1NCCCN1CCOCC1 | -44.7 |
| NC(=O)C1CCN(C(=O)CSc2ccccn2)CC1 | 15.6 |
| CS(=O)(=O)c1ccc(Cl)c(NC(=O)C2CC(=O)N(Cc3ccco3)C2)c1 (centres unmarked) | 9.79 |
| Cn1c(SCc2cccc(Br)c2)nnc1-c1ccccn1 | -33.4 |
| CN(C)c1cccc(C(=O)NCc2ccccc2Cl)c1 | 10 |
| Cc1ccccc1-n1c(-c2ccc([N+](=O)[O-])cc2)nc2ccccc2c1=O | -0.532 |
| COc1ccc(CC(=O)N2CCN(C(=O)Cc3ccc(OC)cc3)CC2)cc1 | -6.76 |
| Cc1ccc2oc(=O)c3cnn(CC(=O)NCCC(C)C)c3c2c1 | 11 |
| O=S(=O)(NCC1CCCN(Cc2ccccc2O)C1)c1cccc2cccnc12 (centres unmarked) | -22.8 |
| c1ccc(CNc2nnnn2-c2ccccc2)cc1 | -12.1 |
| O=C(CSc1nc2scc(-c3ccccc3)c2c(=O)[nH]1)NCCc1ccccc1 | -1.09 |
| O=C(O)c1ccccc1CSc1nnc2c(n1)[nH]c1ccccc12 | 16.3 |
| O=C(O)CCCC(=O)N1CCN(c2nc(-c3ccccc3)c3ccccc3n2)CC1 | 1.86 |
| CCCC[n+]1ccn(C2=C([O-])c3ccccc3C(=O)/C2=N\S(=O)(=O)c2ccccc2)c1 | -14.9 |
| Cc1cc(Cl)ccc1OCC(=O)N1CCN(C)CC1 | -12.5 |
| CCN(CC(=O)Nc1ccc([N+](=O)[O-])cc1OC)CC(=O)NC(C)(C)C | -14.3 |
